# Among all 340,000 compounds or so, about 12,000 (3.5%) were called active. This list was built around the results that the source calls inconclusive (neither active nor inactive); the mix of calls is not that of the screen. Calls come from the whole dose curve; as a rule, active = well fitted inhibition curve with a large enough effect; inconclusive = small, poorly fitted or top-dose-only effect, or another doubt; inactive = no such curve, though single readings can be large or run the other way. No potency is given beside an inconclusive call; the fits are too rough.
# Experiment: qHTS Assay for Inhibitors of Hepatitis C Virus (HCV)
# Conditions: Huh7.5.1 HCVcc-Cre (HCVcc is cell-culture hepatitis C virus) infection, luciferase reporter, 44 h; activity change, negative = inhibition: at 41.8 µM (top of the series) unless noted
# Summary of the method: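 1,000 cells/well; 4 h culture; + compound; + HCVcc-Cre (~0.5 moi); 44 h; luciferase substrate, RT 15 min; read 15 sec.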
# % is set by controls: 0 for no effect and ±100 for the full control effect; potency is the fitted concentration of half-maximal effect; tags give direction and shape of the fitted curve.
SMILES,Potency,"activity change, negative = inhibition"
COC1=CC=C2[C@H]3Cc4ccc(OC)c5c4[C@@]2(CCN3C)C1O5 (stereo not given in full),"inconclusive [inhibitor, partial curve, poor fit]",
CCN(C(=O)COC(=O)C12CC3CC(CC(NC(C)=O)(C3)C1)C2)C1CCCCC1,,inactive: 12.3%
COc1ccc(S(=O)(=O)N2CCCCC2)cc1NC(=O)COc1ccccc1,"inconclusive [inhibitor, single point]",
COc1cc2c(cc1OC)CN(C(=O)c1ccccc1C(=O)O)CC2,,inactive: -2.35%
C=CCN1C(=O)c2ccccc2Sc2ccc(C(=O)N3CCC4(CC3)OCCO4)cc21,"inconclusive [inhibitor, partial curve]",
Cc1c(CCOC(=O)CC23CC4CC(CC(C)(C4)C2)C3)sc[n+]1CC(=O)c1ccccc1,,inactive: -3.72%
COc1cc(CCC(=O)Nc2ccc(Cl)c(C(F)(F)F)c2)cc(OC)c1OC,"inconclusive [inhibitor, partial curve]",
CC1(C)Cc2c(c(N3CCOCC3)nc3sc(C(N)=O)c(N)c23)CO1,,inactive: -5.65%
CCc1sc(C(=O)Nc2cc(S(=O)(=O)N3CCOCC3)ccc2OC)cc1C,"inconclusive [inhibitor, partial curve]",
N#Cc1ccc(N2Cc3ccccc3C2=NC(=O)c2cccs2)cc1,"inconclusive [inhibitor, partial curve]",
CCOc1ccc(-n2c(-c3ccc(Cl)cc3)c[n+]3c2SCC3)cc1,,inactive: -24.8%
CCOc1ccc2ccccc2c1/C=N\NC(=O)c1ccc([N+](=O)[O-])cc1,"inconclusive [inhibitor, single point]",
CCCCn1c(SCC(=O)Nc2nnc(C(C)C)s2)nc2c1c(=O)n(C)c(=O)n2C,"inconclusive [inhibitor, single point]",
CCOc1ccccc1NC(=O)CN1C(=O)NC(Cc2c[nH]c3ccccc23)C1=O (stereo not given),,inactive: 8.98%
Cn1nc(C(=O)OCC(=O)Nc2ccccc2OC(F)F)c2ccccc2c1=O,"inconclusive [inhibitor, single point]",
C=COCCNC(=O)Nc1ccc(Cl)c(Cl)c1,active: 10 µM,
Cc1nc(N)sc1-c1csc(Nc2ccc(S(N)(=O)=O)cc2)n1,active: 10 µM,
COc1cccc(NC(=O)c2ccc(-c3ccccc3[N+](=O)[O-])o2)c1,"inconclusive [inhibitor, full curve, poor fit]",
O=C(c1ccc(COc2ccc(Cl)cc2)o1)N1N=C(C(F)F)CC1(O)C(F)F (stereo not given),"inconclusive [inhibitor, single point]",
CC(NC1CCN(Cc2ccccc2)CC1)c1ccc(F)cc1 (stereo not given),"inconclusive [inhibitor, partial curve]",
COc1cccc(/C=C2/Sc3ccc(C(=O)NCCCN4CCCC4)cc3NC2=O)c1,"inconclusive [inhibitor, partial curve]",
O=C(Nc1ccccc1)/C(=C/c1ccccc1)c1ccccc1,"inconclusive [inhibitor, single point]",
Cc1[nH]nc2c1-c1nc3ccccc3nc1C(C)(C)C2,active: 5.62 µM,

SMILES,Potency,"activity change, negative = inhibition"
Cc1ccccc1OCC(=O)Nc1ccccc1N1CCC(C)CC1,"inconclusive [inhibitor, single point]",
O=C(Nc1ccccc1F)c1ccc2snnc2c1,,inactive: 6.78%
COc1ccc(NC(=O)C2CCN(S(=O)(=O)c3cccs3)CC2)cc1OC,"inconclusive [inhibitor, partial curve]",
O=C(Nc1nc(-c2cccs2)cs1)c1cccc(S(=O)(=O)N2CCCCC2)c1,active: 11.2 µM,
COc1ccc(C)c2sc(N(CCCN(C)C)C(=O)c3ccc4c(c3)OCCO4)nc12,"inconclusive [inhibitor, full curve]",
CC1CCCN(S(=O)(=O)c2ccc3c(c2)n(C)c(=O)c(=O)n3C)C1 (stereo not given),,inactive: 17.6%
CCOC(=O)C1=C(c2ccccc2)NC(N)=NC1c1ccc(OCc2ccc(C(=O)OC)cc2)cc1 (stereo not given),"inconclusive [inhibitor, single point]",
O=C(NC(c1ccccc1)c1ccccc1)c1ccc(CO)cc1,,inactive: -4.11%
COc1ccc(-n2cc(CNC3CCN(C)CC3)c(-c3cccc(F)c3)n2)cc1,active: 11.2 µM,
COc1ccc2c(c1)CC(N1CCN(C)CC1)c1cc(OC)ccc1S2 (stereo not given),"inconclusive [inhibitor, partial curve]",
CCOc1ccc(S(=O)(=O)Nc2cc(C)ccn2)c2ccccc12,"inconclusive [inhibitor, single point]",
N/C(=N\c1nc2ccccc2o1)NC(=O)c1ccc([N+](=O)[O-])cc1,"inconclusive [inhibitor, partial curve]",
Cn1c(COc2ccc(F)cc2)nc2ccccc21,,inactive: -8%
CC(=O)Nc1ccccc1C(=O)C(=O)Nc1cccc(C(=O)N2CC(C)CC(C)C2)c1 (stereo not given),"inconclusive [inhibitor, single point]",
CC1CCCN(S(=O)(=O)c2cc3c4c(c2)C(C)C(=O)N4CCC3)C1 (stereo not given),,inactive: 2.95%
CC(=O)c1ccc(N(C(=O)Cc2c[nH]c3ccccc23)C(C(=O)NC2CCCCC2)c2cccs2)cc1 (stereo not given),"inconclusive [inhibitor, single point]",
Cc1ccc(C(C)(C)C)c(OCCCCN2CCCC2)c1,"inconclusive [inhibitor, partial curve]",
O=C(/C=C/c1ccccc1)NC(=S)NNC(=O)c1cnccn1,"inconclusive [inhibitor, single point]",
S=c1[nH]nc(SCc2ccccc2)c2[nH]cnc12,,inactive: -4.05%
CCc1cc2ccc(C)c(C)c2nc1SCC(=O)Nc1cc(C)on1,"inconclusive [inhibitor, partial curve]",
O=C(COc1cc2oc(=O)c3c(c2cc1Cl)CCC3)Nc1ccccn1,,inactive: 10.9%
Cc1[nH]c2ccccc2c1C(=O)CN1CCN(C/C=C/c2ccccc2)CC1,"inconclusive [inhibitor, single point]",

# From PubChem BioAssay AID651820 (National Center for Advancing Translational Sciences (NCATS), 2012)
